Several values for one entry are separate records, joined by “and”; a condition that tells them apart may be missing. Equal values may be shown once. The inconclusive results got no clear call from the source; some entries with a clear call stand among them for comparison. Potencies of inconclusive entries are doubtful fits and often do not repeat. Where a structure was tested more than once in an assay, its records may differ in their call. Activity calls are given as the source filed them. The call rests on the fitted dose curve; in most records, active means well fitted curve in the direction sought with a large enough effect; inconclusive means small, poorly fitted or top-dose-only effect, or another doubt; inactive means no such curve, though single readings can be large; an effect the other way counts as inactive or inconclusive.
Legend:
[1] = system: HaCat; assay: Cytotoxic Profiling of Annotated Libraries Using Quantitative High-Throughput Screening (AID 1296008); conditions: Five cell lines viability, CellTiter-Glo ATP luminescence, 48-72 h; max response: stronger effect = lower value; further: nearly all actives have a fitted effect of over 60% in size
In short: (§1)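 Cytotoxicity was measured as CellTiter-Glo ATP luminescence, read after 10 min at room temperature. Compound treatment of the cells lasted 48 or 72 hr at 37 degrees Celsius in a qHTS format.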

[2] = system: KB-3-1; assay: as above; conditions: Five cell lines viability, CellTiter-Glo ATP luminescence, 48-72 h; max response: stronger effect = lower value
In short: as §1

[3] = system: NIH3T3; assay: as above; conditions: Five cell lines viability, CellTiter-Glo ATP luminescence, 48-72 h; max response: stronger effect = lower value
In short: as §1

[4] = system: MKL-1; assay: qHTS assay to identify novel small-molecules to repurpose for Merkel cell carcinoma treatment (AID 1296009); conditions: MCC and control cell lines, CellTiter-Glo viability, 72 h; series mostly up to 46 µM; further: nearly all actives have a fitted effect of over 60% in size
In short: (§2)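 After compound transfer in DMSO, plates were kept 72 hr at 37 degree celsius. Luminescent ATP signal from CellTiter-Glo served as viability measure, normalized against DMSO and no-cell controls.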

[5] = system: MKL-2; assay: as above; conditions: MCC and control cell lines, CellTiter-Glo viability, 72 h; activity change, negative = cytotoxicity: at 46 µM (top of the series)
In short: as §2

[6] = system: UISO; assay: as above; conditions: MCC and control cell lines, CellTiter-Glo viability, 72 h; series mostly up to 46 µM
In short: as §2

[7] = system: C33A; assay: Primary qHTS to identify gynecologic anti-cancer compounds using libraries of approved drugs and bioactive compounds (AID 1345084); conditions: Gynecologic cancer cell panel viability, ATPlite luminescence, 48 h; series mostly up to 57.5 µM; further: nearly all actives have a fitted effect of over 55% in size
In short: (§3)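 Luminescence from the ATPlite ATP-monitoring reagent indicates viable cell number; lower signal means cytotoxicity. Cells received compound 16 h after seeding and were exposed for 48 h across five concentrations.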

[8] = system: Es-2; assay: as above; conditions: Gynecologic cancer cell panel viability, ATPlite luminescence, 48 h; series mostly up to 57.5 µM
In short: as §3

[9] = system: Hek293T; assay: as above; conditions: Gynecologic cancer cell panel viability, ATPlite luminescence, 48 h, control line for the selectivity index; series mostly up to 57.5 µM
In short: as §3

[10] = system: OV90; assay: as above; conditions: Gynecologic cancer cell panel viability, ATPlite luminescence, 48 h; series mostly up to 57.5 µM
In short: as §3

[11] = system: PA-1; assay: as above; conditions: Gynecologic cancer cell panel viability, ATPlite luminescence, 48 h; series mostly up to 57.5 µM
In short: as §3

[12] = system: SKOV3; assay: as above; conditions: Gynecologic cancer cell panel viability, ATPlite luminescence, 48 h; series mostly up to 57.5 µM
In short: as §3

[13] = system: CAOV3; assay: as above; conditions: Gynecologic cancer cell panel viability, ATPlite luminescence, 48 h; series mostly up to 57.5 µM
In short: as §3

[14] = system: HeLa; assay: as above; conditions: Gynecologic cancer cell panel viability, ATPlite luminescence, 48 h; series mostly up to 57.5 µM
In short: as §3

[15] = system: MCC-26; assay: qHTS assay to identify novel small-molecules to repurpose for Merkel cell carcinoma treatment (AID 1296009); conditions: MCC and control cell lines, CellTiter-Glo viability, 72 h; activity change, negative = cytotoxicity: at 46 µM (top of the series); further: nearly all actives have a fitted effect of over 60% in size
In short: as §2

[16] = system: WaGa; assay: as above; conditions: MCC and control cell lines, CellTiter-Glo viability, 72 h; series mostly up to 46 µM
In short: as §2

[17] = system: MCC-13; assay: as above; conditions: MCC and control cell lines, CellTiter-Glo viability, 72 h; series mostly up to 46 µM
In short: as §2

[18] = system: CASKI; assay: Primary qHTS to identify gynecologic anti-cancer compounds using libraries of approved drugs and bioactive compounds (AID 1345084); conditions: Gynecologic cancer cell panel viability, ATPlite luminescence, 48 h; series mostly up to 57.5 µM; further: nearly all actives have a fitted effect of over 55% in size
In short: as §3

[19] = system: JEG-3; assay: as above; conditions: Gynecologic cancer cell panel viability, ATPlite luminescence, 48 h; series mostly up to 57.5 µM
In short: as §3
On the % scale 0 is the no-effect control and ±100 the full control effect; potency means the concentration at half of the fitted maximal effect; tags describe the fitted curve by direction and shape.

SMILES: Oc1c(Br)cc(Br)c2cccnc12
- Potency [1]: inconclusive: 33.5 µM [inhibitor, single point]
- Potency [2]: inconclusive: 16.4 µM [inhibitor, partial curve]
- Potency [3]: inconclusive: 23.7 µM [inhibitor, single point]
- Potency [4]: active: 11.9 µM
- Potency [5]: active: 4.22 µM
- Potency [6]: active: 7.5 µM
- Potency [7]: inactive
- Potency [8]: inconclusive: 44.7 µM [cytotoxic, partial curve, poor fit]
- Potency [9]: inconclusive: 39.8 µM [cytotoxic, single point]
- Potency [10]: inconclusive: 39.8 µM [cytotoxic, single point]
- Potency [11]: inconclusive: 50.1 µM [cytotoxic, partial curve, poor fit]
- Potency [12]: inconclusive: 39.8 µM [cytotoxic, single point]

SMILES: CS(=O)(=O)CCNCc1ccc(-c2ccc3ncnc(Nc4ccc(OCc5cccc(F)c5)c(Cl)c4)c3c2)o1
- Potency [1]: active: 46.9 nM and active: 266 nM and inconclusive: 1.3 µM [inhibitor, full curve, poor fit]
- Potency [2]: inconclusive: 37.2 µM [inhibitor, single point] and inconclusive: 18.4 µM [inhibitor, single point]
- Potency [3]: inconclusive: 23.7 µM [inhibitor, single point]
- Potency [4]: inconclusive: 18.8 µM [inhibitor, single point]
- Potency [5]: inconclusive: 18.7 µM [inhibitor, partial curve] and active: 11.9 µM
- Potency [13]: inconclusive: 17.8 µM [cytotoxic, partial curve, poor fit] and inconclusive: 39.8 µM [cytotoxic, single point]
- Potency [14]: inconclusive: 39.8 µM [cytotoxic, single point]
- Potency [10]: inconclusive: 39.8 µM [cytotoxic, single point]

SMILES: CCc1ccc(OCc2ccccc2C(=O)Nc2ccc3nc(C)cc(N)c3c2)cc1
- Potency [1]: active: 11.8 µM
- Potency [3]: active: 9.35 µM
- Potency [15]: inconclusive: 33.2 µM [inhibitor, single point]

SMILES: O=C(Nc1ccc(OC(F)(F)F)cc1)c1sccc1NCc1ccnc2ccccc12
- Potency [1]: inconclusive: 20.6 µM [inhibitor, single point]
- Potency [2]: inconclusive: 26.4 µM [inhibitor, single point] and inconclusive: 18.4 µM [inhibitor, partial curve]
- Potency [3]: inconclusive: 37.2 µM [inhibitor, single point]
- Potency [5]: inconclusive: 8.33 µM [inhibitor, partial curve]
- Potency [6]: inconclusive: 14.8 µM [inhibitor, partial curve]
- Potency [16]: inconclusive: 20.9 µM [inhibitor, single point]
- Potency [13]: inactive
- Potency [8]: inactive
- Potency [10]: inconclusive: 39.8 µM [cytotoxic, partial curve, poor fit]
- Potency [11]: inconclusive: 31.6 µM [cytotoxic, single point]

SMILES: COc1cc2c3cc1Oc1cc(ccc1O)C[C@@H]1c4c(cc(OC)c(O)c4Oc4ccc(cc4)C[C@@H]3N(C)CC2)CC[N+]1(C)C
- max response [1]: inactive: 1.8%
- Potency [17]: inactive
- Potency [6]: inactive

SMILES: Cc1nc(NC(=O)N2CCC[C@@H]2C(N)=O)sc1-c1ccnc(C(C)(C)C(F)(F)F)c1
- Potency [1]: active: 3.32 µM
- Potency [2]: active: 8.33 µM
- Potency [3]: active: 16.6 µM
- Potency [5]: inconclusive: 29.6 µM [inhibitor, partial curve, poor fit]
- Potency [6]: inconclusive: 1.87 µM [inhibitor, partial curve]
- Potency [16]: inconclusive: 1.87 µM [inhibitor, partial curve]

SMILES: C=CC(=O)Nc1cc2c(Nc3ccc(F)c(Cl)c3)ncnc2cc1C#CC(C)(C)N1CCN(C)CC1
- Potency [1]: active: 2.09 µM
- Potency [2]: inconclusive: 11.8 µM [inhibitor, single point]
- Potency [3]: inconclusive: 7.43 µM [inhibitor, full curve]
- Potency [6]: active: 7.43 µM

SMILES: Cc1ccnc(NS(=O)(=O)c2ccc(NC(=O)Nc3ccc(S(=O)(=O)Nc4nccc(C)n4)cc3)cc2)n1
- Potency [1]: active: 1.48 µM
- Potency [2]: active: 2.35 µM
- Potency [12]: inactive

SMILES: O=C(O)CN(CCOCCOCCN(CC(=O)O)CC(=O)O)CC(=O)O
- max response [1]: inactive: 4.17%
- activity change, negative = cytotoxicity [4]: inactive: 14.4% [at 0.597 µM]

SMILES: CC1=C(CO)C(=O)O[C@@H]([C@@H](C)[C@H]2CC[C@H]3[C@@H]4C[C@H]5O[C@]56[C@@H](O)C=CC(=O)[C@]6(C)[C@@H]4CC[C@]23C)C1
- Potency [1]: active: 2.64 µM
- Potency [17]: active: 0.662 µM
- Potency [15]: inconclusive: 1.05 µM [inhibitor, full curve, poor fit]
- Potency [5]: active: 0.132 µM
- Potency [6]: active: 0.743 µM
- Potency [16]: active: 0.264 µM

SMILES: Oc1ccc(C2=Cc3ccc(O)cc3OC2)cc1
- Potency [1]: inconclusive: 37.2 µM [inhibitor, single point]
- Potency [2]: active: 16.6 µM
- Potency [3]: active: 7.43 µM
- Potency [15]: active: 20.9 µM
- Potency [5]: inconclusive: 5.9 µM [inhibitor, partial curve, poor fit]

SMILES: O=C1c2c(O)ccc(O)c2C(=O)c2c(NCCNCCO)ccc(NCCNCCO)c21
- Potency [1]: active: 264 nM and inconclusive: 119 nM [inhibitor, full curve]
- Potency [2]: inconclusive: 14 µM [inhibitor, single point]
- Potency [3]: active: 59 nM and active: 21.1 nM
- Potency [15]: active: 1.87 µM and active: 596 nM
- Potency [4]: active: 105 nM and active: 6 nM
- Potency [5]: inconclusive: 0.148 µM [inhibitor, full curve]
- Potency [6]: active: 526 nM and active: 668 nM
- Potency [7]: active: 2.51 µM
- Potency [13]: active: 3.16 µM
- Potency [18]: active: 2.82 µM
- Potency [8]: inconclusive: 3.55 µM [cytotoxic, partial curve, poor fit]
- Potency [9]: active: 10 µM
- Potency [19]: active: 11.2 µM
- Potency [10]: active: 28.2 µM
- Potency [11]: inconclusive: 0.0178 µM [cytotoxic, full curve, poor fit]
- Potency [12]: inconclusive: 0.794 µM [cytotoxic, full curve, poor fit]

SMILES: Nc1nccc(Oc2ccc(NC(=O)c3c[nH]cc(-c4ccc(F)cc4)c3=O)cc2F)c1Cl
- Potency [1]: inconclusive: 37.2 µM [inhibitor, single point]
- Potency [3]: active: 16.6 µM and inconclusive: 580 nM [inhibitor, full curve, poor fit]
- Potency [15]: inconclusive: 20.9 µM [inhibitor, single point]
- Potency [4]: active: 5.26 µM
- Potency [5]: active: 14.8 µM
- Potency [6]: active: 14.8 µM
- Potency [16]: active: 2.35 µM
- Potency [13]: inconclusive: 28.2 µM [cytotoxic, single point]
- Potency [8]: inconclusive: 39.8 µM [cytotoxic, single point]
- Potency [12]: inconclusive: 4.47 µM [cytotoxic, partial curve, poor fit]

SMILES: CC(C)(C)c1ccc(O)c(O)c1
- Potency [1]: inconclusive: 12.2 µM [inhibitor, partial curve, poor fit]
- Potency [3]: inconclusive: 54.5 µM [inhibitor, single point]
- Potency [17]: inconclusive: 48.6 µM [inhibitor, partial curve, poor fit]
- Potency [15]: inconclusive: 38.6 µM [inhibitor, single point]
- Potency [5]: active: 6.11 µM
- Potency [6]: active: 15.4 µM
- Potency [7]: inconclusive: 50.1 µM [cytotoxic, single point]
- Potency [13]: inconclusive: 31.6 µM [cytotoxic, single point]
- Potency [18]: inconclusive: 89.1 µM [cytotoxic, single point]
- Potency [8]: inconclusive: 31.6 µM [cytotoxic, partial curve, poor fit]
- Potency [14]: inconclusive: 35.5 µM [cytotoxic, single point]
- Potency [9]: inconclusive: 39.8 µM [cytotoxic, single point]
- Potency [19]: inconclusive: 35.5 µM [cytotoxic, single point]
- Potency [10]: active: 35.5 µM
- Potency [11]: inconclusive: 39.8 µM [cytotoxic, partial curve, poor fit]
- Potency [12]: active: 31.6 µM

SMILES: CCCCCN=C(N)NN=Cc1c[nH]c2ccc(OC)cc12
- Potency [1]: inconclusive: 2.96 µM [inhibitor, full curve]
- Potency [17]: inconclusive: 13.2 µM [inhibitor, partial curve]
- Potency [15]: inconclusive: 23.5 µM [inhibitor, single point]
- Potency [4]: inconclusive: 11.8 µM [inhibitor, partial curve]
- Potency [5]: inconclusive: 18.7 µM [inhibitor, partial curve, poor fit]
- Potency [6]: inconclusive: 3.32 µM [inhibitor, full curve]
- Potency [16]: inconclusive: 8.33 µM [inhibitor, full curve]

SMILES: C=C1C(=O)[C@@]23C(CC[C@@H]1[C@H]2O)[C@@]12CO[C@]3(O)[C@@H](O)[C@@H]1C(C)(C)CC[C@@H]2O (stereo not given in full)
- Potency [1]: inconclusive: 33.2 µM [inhibitor, single point] and inconclusive: 3.66 µM [inhibitor, partial curve, poor fit]
- Potency [2]: inconclusive: 18.4 µM [inhibitor, single point]
- Potency [3]: inconclusive: 23.1 µM [inhibitor, partial curve, poor fit]
- Potency [15]: inconclusive: 26.4 µM [inhibitor, single point]
- Potency [5]: active: 0.935 µM
- Potency [16]: active: 0.833 µM
- Potency [7]: active: 28.2 µM
- Potency [13]: inconclusive: 35.5 µM [cytotoxic, single point]
- Potency [18]: inconclusive: 39.8 µM [cytotoxic, single point]
- Potency [8]: inconclusive: 39.8 µM [cytotoxic, single point]
- Potency [9]: active: 28.2 µM
- Potency [19]: inconclusive: 39.8 µM [cytotoxic, single point]
- Potency [11]: inconclusive: 39.8 µM [cytotoxic, single point]
- Potency [12]: inconclusive: 28.2 µM [cytotoxic, single point]

Reference: PubChem BioAssay (NCATS)
